# According to the supplement of paper PMC8728848:
# The list shows a part of the results.
# B1: Tectonin 2 (Laccaria bicolor) (protein)
# chain: MPWKGISGSLSRISAGSVTNVWGVNAANNIYRYTGDDAKPWVQIPGALTDIGAAADGTVWGVNAAGNIYRYVWDSNHWTQIKGALKRISAGSRTNVWGVNAGGAIYRYTGDDANPWVQIPGVLSDIGAGADGTVWGVNAAGEIYRYTGDQGDPNHWVKIPGALSAISAGIKTNVWGVNSANNIYTSTGDDKNPWLGIGGSLVDIGAGTDGVVWGVNAGGGIYRWIRD
# Assays:
# Assay in all cases: glycan array binding signal (z-score within array); higher = stronger binding
# Details in all cases: glycan notation: IUPAC condensed, linker removed
# [1] = target: Gal(a1-3)Gal(b1-4)[Fuc(a1-3)]GlcNAc
# Procedure, shortened: (§1)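 Glycan array data came from 3228 arrays in the Consortium for Functional Glycomics database, and only arrays with an available protein sequence were kept. Glycan names were put into IUPAC-condensed notation, and columns mapping to the same glycan were averaged. The binding signal is a within-array Z-score, averaged across arrays of one protein sequence run at different concentrations or buffers and across linkers. A negative Z-score can be read as non-binding.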
# [2] = target: Gal(a1-3)Gal(b1-4)[Fuc(a1-3)]GlcNAc(b1-2)Man(a1-3)[Gal(a1-3)Gal(b1-4)[Fuc(a1-3)]GlcNAc(b1-2)Man(a1-6)]Man(b1-4)GlcNAc(b1-4)GlcNAc
# Procedure, shortened: as §1
# Gal(a1-3)GalNAc = target: Gal(a1-3)GalNAc
# Procedure, shortened: as §1
# [3] = target: Gal(a1-3)[Gal(a1-4)]Gal(b1-4)GlcNAc
# Procedure, shortened: as §1
# [4] = target: Gal(a1-4)Gal(b1-3)GlcNAc(b1-2)Man(a1-3)[Gal(a1-4)Gal(b1-3)GlcNAc(b1-2)Man(a1-6)]Man(b1-4)GlcNAc(b1-4)GlcNAc
# Procedure, shortened: as §1
# Gal(a1-4)Gal(b1-4)Glc = target: Gal(a1-4)Gal(b1-4)Glc
# Procedure, shortened: as §1
# Gal(a1-4)Gal(b1-4)GlcNAc = target: Gal(a1-4)Gal(b1-4)GlcNAc
# Procedure, shortened: as §1
# [5] = target: Gal(a1-4)Gal(b1-4)GlcNAc(b1-2)Man(a1-3)[Gal(a1-4)Gal(b1-4)GlcNAc(b1-2)Man(a1-6)]Man(b1-4)GlcNAc(b1-4)GlcNAc
# Procedure, shortened: as §1
# [6] = target: Gal(a1-4)Gal(b1-4)GlcNAc(b1-3)Gal(b1-4)Glc
# Procedure, shortened: as §1
# Gal(a1-4)GlcNAc = target: Gal(a1-4)GlcNAc
# Procedure, shortened: as §1
# Gal(a1-6)Glc = target: Gal(a1-6)Glc
# Procedure, shortened: as §1
# Gal(b1-2)Gal = target: Gal(b1-2)Gal
# Procedure, shortened: as §1
# Gal(b1-3)Gal = target: Gal(b1-3)Gal
# Procedure, shortened: as §1
# Gal(b1-3)Gal(b1-4)GlcNAc = target: Gal(b1-3)Gal(b1-4)GlcNAc
# Procedure, shortened: as §1
# [7] = target: Gal(b1-3)Gal(b1-4)GlcNAc(b1-2)Man(a1-3)[Gal(b1-3)Gal(b1-4)GlcNAc(b1-2)Man(a1-6)]Man(b1-4)GlcNAc(b1-4)GlcNAc
# Procedure, shortened: as §1
# Gal(b1-3)GalNAc = target: Gal(b1-3)GalNAc
# Procedure, shortened: as §1
# [8] = target: Gal(b1-3)GalNAc(a1-3)[Fuc(a1-2)]Gal(b1-4)Glc
# Procedure, shortened: as §1
# [9] = target: Gal(b1-3)GalNAc(a1-3)[Fuc(a1-2)]Gal(b1-4)GlcNAc
# Procedure, shortened: as §1
# [10] = target: Gal(b1-3)GalNAc(b1-3)Gal(a1-4)Gal(b1-4)Glc
# Procedure, shortened: as §1
# [11] = target: Gal(b1-3)GalNAc(b1-4)Gal(b1-4)Glc
# Procedure, shortened: as §1
# [12] = target: Gal(b1-3)GalNAc(b1-4)[Neu5Ac(a2-3)]Gal(b1-4)Glc
# Procedure, shortened: as §1
# Gal(b1-3)GlcNAc = target: Gal(b1-3)GlcNAc
# Procedure, shortened: as §1
# [13] = target: Gal(b1-3)GlcNAc(a1-6)Gal(b1-4)GlcNAc
# Procedure, shortened: as §1
# [14] = target: Gal(b1-3)GlcNAc(b1-2)Man(a1-3)[Gal(b1-3)GlcNAc(b1-2)Man(a1-6)]Man(b1-4)GlcNAc(b1-4)GlcNAc
# Procedure, shortened: as §1
# [15] = target: Gal(b1-3)GlcNAc(b1-2)Man(a1-3)[Gal(b1-3)GlcNAc(b1-2)Man(a1-6)]Man(b1-4)GlcNAc(b1-4)[Fuc(a1-6)]GlcNAc
# Procedure, shortened: as §1
# [16] = target: Gal(b1-3)GlcNAc(b1-2)[Gal(b1-3)GlcNAc(b1-6)]Man(a1-6)[Gal(b1-3)GlcNAc(b1-2)Man(a1-3)]Man(b1-4)GlcNAc(b1-4)GlcNAc
# Procedure, shortened: as §1
# [17] = target: Gal(b1-3)GlcNAc(b1-3)Gal(b1-3)GlcNAc
# Procedure, shortened: as §1
# [18] = target: Gal(b1-3)GlcNAc(b1-3)Gal(b1-4)Glc
# Procedure, shortened: as §1
# [19] = target: Gal(b1-3)GlcNAc(b1-3)Gal(b1-4)GlcNAc
# Procedure, shortened: as §1
# [20] = target: Gal(b1-3)GlcNAc(b1-3)Gal(b1-4)GlcNAc(b1-6)[Gal(b1-3)GlcNAc(b1-3)]Gal(b1-4)Glc
# Procedure, shortened: as §1
# [21] = target: Gal(b1-3)GlcNAc(b1-3)Gal(b1-4)[Fuc(a1-3)]GlcNAc(b1-6)[Gal(b1-3)GlcNAc(b1-3)]Gal(b1-4)Glc
# Procedure, shortened: as §1
# [22] = target: Gal(b1-3)GlcNAc(b1-3)GalNAc
# Procedure, shortened: as §1
# [23] = target: Gal(b1-3)GlcNAc(b1-6)Gal(b1-4)GlcNAc
# Procedure, shortened: as §1
# [24] = target: Gal(b1-3)[Fuc(a1-4)]GlcNAc
# Procedure, shortened: as §1
# [25] = target: Gal(b1-3)[Fuc(a1-4)]GlcNAc(b1-2)Man(a1-3)[Gal(b1-3)[Fuc(a1-4)]GlcNAc(b1-2)Man(a1-6)]Man(b1-4)GlcNAc(b1-4)GlcNAc
# Procedure, shortened: as §1
# [26] = target: Gal(b1-3)[Fuc(a1-4)]GlcNAc(b1-2)Man(a1-3)[Gal(b1-3)[Fuc(a1-4)]GlcNAc(b1-2)Man(a1-6)]Man(b1-4)GlcNAc(b1-4)[Fuc(a1-6)]GlcNAc
# Procedure, shortened: as §1
# [27] = target: Gal(b1-3)[Fuc(a1-4)]GlcNAc(b1-3)Gal(b1-3)[Fuc(a1-4)]GlcNAc
# Procedure, shortened: as §1
# [28] = target: Gal(b1-3)[Fuc(a1-4)]GlcNAc(b1-3)Gal(b1-4)GlcNAc
# Procedure, shortened: as §1
# [29] = target: Gal(b1-3)[Fuc(a1-4)]GlcNAc(b1-3)Gal(b1-4)[Fuc(a1-3)]GlcNAc
# Procedure, shortened: as §1
# [30] = target: Gal(b1-3)[GlcNAc(b1-6)]GalNAc
# Procedure, shortened: as §1
# [31] = target: Gal(b1-3)[Neu5Ac(a2-6)]GalNAc
# Procedure, shortened: as §1
# [32] = target: Gal(b1-3)[Neu5Ac(a2-6)]GlcNAc(b1-6)Gal(b1-4)Glc
# Procedure, shortened: as §1
# [33] = target: Gal(b1-3)[Neu5Ac(b2-6)]GalNAc
# Procedure, shortened: as §1
# Gal(b1-4)Gal = target: Gal(b1-4)Gal
# Procedure, shortened: as §1
# [34] = target: Gal(b1-4)GalNAc(a1-3)[Fuc(a1-2)]Gal(b1-4)GlcNAc
# Procedure, shortened: as §1
binder,measurement,setting,value
B1,glycan array binding signal (z-score),[1],-0.363
same,glycan array binding signal (z-score),[2],0.016
same,glycan array binding signal (z-score),Gal(a1-3)GalNAc,-0.446
same,glycan array binding signal (z-score),[3],-0.362
same,glycan array binding signal (z-score),[4],0.015
same,glycan array binding signal (z-score),Gal(a1-4)Gal(b1-4)Glc,-0.283
same,glycan array binding signal (z-score),Gal(a1-4)Gal(b1-4)GlcNAc,-0.423
same,glycan array binding signal (z-score),[5],0.389
same,glycan array binding signal (z-score),[6],-0.355
same,glycan array binding signal (z-score),Gal(a1-4)GlcNAc,-0.375
same,glycan array binding signal (z-score),Gal(a1-6)Glc,-0.479
same,glycan array binding signal (z-score),Gal(b1-2)Gal,-0.425
same,glycan array binding signal (z-score),Gal(b1-3)Gal,-0.268
same,glycan array binding signal (z-score),Gal(b1-3)Gal(b1-4)GlcNAc,-0.137
same,glycan array binding signal (z-score),[7],1.02
same,glycan array binding signal (z-score),Gal(b1-3)GalNAc,-0.212
same,glycan array binding signal (z-score),[8],-0.46
same,glycan array binding signal (z-score),[9],-0.491
same,glycan array binding signal (z-score),[10],-0.435
same,glycan array binding signal (z-score),[11],-0.123
same,glycan array binding signal (z-score),[12],-0.063
same,glycan array binding signal (z-score),Gal(b1-3)GlcNAc,-0.346
same,glycan array binding signal (z-score),[13],-0.48
same,glycan array binding signal (z-score),[14],0.354
same,glycan array binding signal (z-score),[15],-0.097
same,glycan array binding signal (z-score),[16],-0.307
same,glycan array binding signal (z-score),[17],-0.474
same,glycan array binding signal (z-score),[18],-0.339
same,glycan array binding signal (z-score),[19],-0.322
same,glycan array binding signal (z-score),[20],-0.403
same,glycan array binding signal (z-score),[21],-0.361
same,glycan array binding signal (z-score),[22],-0.237
same,glycan array binding signal (z-score),[23],-0.314
same,glycan array binding signal (z-score),[24],-0.348
same,glycan array binding signal (z-score),[25],0.835
same,glycan array binding signal (z-score),[26],0.239
same,glycan array binding signal (z-score),[27],-0.42
same,glycan array binding signal (z-score),[28],-0.217
same,glycan array binding signal (z-score),[29],-0.39
same,glycan array binding signal (z-score),[30],-0.144
same,glycan array binding signal (z-score),[31],-0.116
same,glycan array binding signal (z-score),[32],-0.414
same,glycan array binding signal (z-score),[33],-0.312
same,glycan array binding signal (z-score),Gal(b1-4)Gal,-0.475
same,glycan array binding signal (z-score),[34],-0.003
